Consider 44 sequences from the supplement of paper PMC11417369.

The other results are listed elsewhere or left out.

The subject of this assay is PfAP2-HC AP2 domain (GST-tagged). Kind of assay: gcPBM binding intensity (ln(normalized median fluorescence intensity)); higher = stronger DNA binding. The gist of the method: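 For binding intensity, the highest Masliner-normalised natural-log median intensity across replicate spots of either probe orientation was taken. Protein bound to the array was stained with Alexa488 anti-GST antibody and scanned at 488 nm. The protein, GST-tagged P. falciparum DNA-binding domains from E. coli at about 25 μg on average, had been applied for 1 h to an Agilent 4 × 180k array of primer-extended double-stranded 36-bp intergenic genomic probes and negative controls.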
For the sequence “TTAGTTTATTGGTACTGTACTTTTTTTTTCTCCATT [XGTACX_site8618]”, the “gcPBM binding intensity (ln)” value came out at 9.64. Next, “TATCATATATGAAGGTGTACGATTTATTATATAAAT [XGTACX_site7010]”: 9.56. For “ATTTTTGAACGGTACAGTACAGAATTTAATTAACCC [XGTACX_site47]”, the “gcPBM binding intensity (ln)” value turned out to be 9.6. For the sequence “TTGCATTACGAACATACACACAGAATAACTGAAAAC [CACACA_site3025]”, the “gcPBM binding intensity (ln)” value was found to be 9.84. As to “TTCGATGAATATACAAGTACATATCCTTACGAACTG [XGTACX_site1650]”, the “gcPBM binding intensity (ln)” value worked out at 9.45.

Regarding “TTTTTATTAAGACATGCATGGAAACGCACTATTTTA [TGCATGCA_site999]”, the “gcPBM binding intensity (ln)” value is 9.61. Next, “ATACGAAGTACGTACACACACTTATATGTTACTAAA [CACACA_site7812]”: 10.3. With “TATATATGCATTAAATGATGTTCCTGTTTTTTAAAA [CACACA_negctrl_site1378]”, the “gcPBM binding intensity (ln)” value is 9.51. For “TTTATATCATTTCTTAAAAAAAAGGAGGTAATAGAC [TGCATGCA_negctrl_site555]”, the “gcPBM binding intensity (ln)” value was determined as 9.68. Next, “AATAAATAAATATATACACACATATATGTCTACATA [CACACA_site3158]”: 10.1; “AAGTTACAGAATATCACACATAAATTATCTGTATAT [CACACA_site5116]”: 9.62. With “GTTAAGCAATATATATGTACTTATGGAATAGAAAAA [XGTACX_site3693]”, the “gcPBM binding intensity (ln)” value came to 9.64. Next, “TCAATTAATTATTTTTGTACACAAGAATTACTGAAT [XGTACX_site6401]”: 9.61; “GTGTGATATAATTTTTTTAGAGCTTTATAATATTAT [CACACA_negctrl_site233]”: 9.61; “TATGTTGATGATATTACACACCCAATGAGAAAAGGA [CACACA_site7060]”: 9.82. Turning to “CAACCATTTGTAGGTAAACACACATTATTATTAATA [CACACA_site8842]”, the “gcPBM binding intensity (ln)” value was 9.7.

On to “TGTTTATACATCAGGTGTACGCAAAATAATTGTATG [XGTACX_site206]”, for which the “gcPBM binding intensity (ln)” value was 9.63.

Regarding “TTTATTTACTATTAAAGTACTAAATCATATAATTAT [XGTACX_site2580]”, the “gcPBM binding intensity (ln)” value is 9.62. On to “TATACATATACATATACACACACACCCATAAATAAA [CACACA_site8372]”, for which the “gcPBM binding intensity (ln)” value is 10.6. Then “TTAACACATGCTTGGTCACACACGTATGCATATTTA [CACACA_site2127]”, with 9.97; and “TTTGTCAAATAATATTGTACTAAAAAATTTTGCCTT [XGTACX_site7485]”, with 9.41. Then “TATTTGTAATATAACACACACAAAAAAAGACTCGGA [CACACA_site1681]”, with 10.3; and “ATACACACAGCCTAAACATGCATATAGAAAAAAGAA [TGCATGCA_site1028]”, with 10.2. Next, “TTTTTTTTTTTTTTATGTACTAAAAAATGAAAAATA [XGTACX_site6812]”: 9.06; “AAATACTTAACATTGGTGCATATTTGTAAAATTATT [GTGCAC_site9515]”: 9.68. With “TTTTGGCTTCTAATATTATACAAAATGGTAAGGAAA [TGCATGCA_negctrl_site169]”, the “gcPBM binding intensity (ln)” value turned out to be 9.37. Consider “AGAATACAAAATTGCACACATATTGTGAAAATGTTA [CACACA_site4005]”, for which the “gcPBM binding intensity (ln)” value is 10. As for “ATGCAATAATAATATTGTACGCATATATTTTTTACT [XGTACX_site3384]”, the “gcPBM binding intensity (ln)” value is 9.64.

For “AAAAAAAAAAAAAAAACACACACATATATATAATAT [CACACA_site9038]”, the “gcPBM binding intensity (ln)” value was 10.3. Regarding TTATTTATTTATTGGGTGCACTTGATTTAAATATGC, the “gcPBM binding intensity (ln)” value was 9.53. “AATACATCATTAAAATGTACATATATATATACATTA [XGTACX_site132]”: the “gcPBM binding intensity (ln)” value worked out at 9.61. Next, “ATTATAATAATGTGATGTACATTAATTGTCTTCCTA [XGTACX_site5404]”: 9.67; “GAAATAAGGGTTATTTCACACATTGCATGTATTTTC [CACACA_site5752]”: 9.72. Then “ATATATATTAATTTTGTGCACAAATGGAAATGTTTG [GTGCAC_site9971]”, with 9.68; and “TTTTTTAAATGTCATTGTACATAATTCAATATATAA [XGTACX_site5]”, with 9.39. Next, “AGCTAATATATCTTATATTCATATAAAAAAATATAT [CACACA_negctrl_site1786]”: 9.41. Consider “TGACTTTTTTTATGTTGTACTTATTATAAAAAAAAT [XGTACX_site7736]”, for which the “gcPBM binding intensity (ln)” value turned out to be 9.11.

Turning to “TTATAAAATATTTTTTGTACACATAATAGTAAGACT [XGTACX_site933]”, the “gcPBM binding intensity (ln)” value came to 9.43. Then “AATACATGCTTATTTTAACACACAAATGGTAGTAAT [CACACA_site8154]”, with 9.83. For “GATTATTTTATAAGTACACACATTTATCTATAATAA [CACACA_site7256]”, the “gcPBM binding intensity (ln)” value worked out at 9.69.

With “GATTAATACACATTCTTCCGACATAATAAGAAAAAG [GTGCAC_negctrl_site7]”, the “gcPBM binding intensity (ln)” value is 9.56. With “CTTATATTTAGACACACACACAATAAAATGAAAAAA [CACACA_site1031]”, the “gcPBM binding intensity (ln)” value amounted to 10.3. Then “AACCATGTTAACAACGCATGTATATCTATGGGTTTA [TGCATGCA_site419]”, with 9.53. Then “CCATAATATTATAGACGTACGAATATATATAAAAGA [XGTACX_site7295]”, with 9.75.
